For this experiment, the target named is human Cav1.3-α1 subunit (human, UniProt Q01668-1 1-2161). Put plainly: cryo-EM structure.

B1: human α2δ-1 subunit (natural protein)
chain: not shown
On to B1, for which the binding result is listed as “binds”.

Values taken from publication PMC9891081 (Cell, 2022).
